Laboratory results reported in the antibiotic and cytotoxicity screens of Wong et al. (2023).
Some of the results follow.

Legend:
HSkMC = human skeletal muscle cells; test: cytotoxicity call (relative viability < 0.9); conditions: 10 µM
HepG2 = test: cytotoxicity call (relative viability < 0.9); conditions: 10 µM
S. aureus RN4220 = test: growth inhibition call (relative growth <= 0.2); conditions: 50 µM

SMILES | cytotoxicity call (HSkMC) | cytotoxicity call (HepG2) | growth inhibition call (S. aureus RN4220)
Cn1c(=O)c2c(nc(N(CCO)CCO)n2Cc2ccc(F)cc2)n(C)c1=O | inactive | inactive | inactive
CC(C)(C)[S@](=O)N1Cc2cc(C(=O)NCCc3ccncc3)nc(-c3cccc(-c4ccc(C#N)cc4)c3)c2[C@@H]1CCO | inactive | inactive | inactive
Cc1ccc(S(=O)(=O)N(C)C[C@H]2Oc3ccc(NS(C)(=O)=O)cc3CC(=O)N([C@H](C)CO)C[C@H]2C)cc1 | inactive | inactive | inactive
C[C@H](CO)N1C[C@H](C)[C@H](CN(C)Cc2ccc(Cl)c(Cl)c2)OCCCC[C@H](C)Oc2ccc(NC(=O)NC3CCCCC3)cc2C1=O | inactive | active | inactive
COCC(=O)Nc1ccc2c(c1)OC[C@H](C)N(C(=O)c1ccccc1F)C[C@@H](C)[C@H](OC)CN(C)C2=O | inactive | inactive | inactive
C[C@H](CO)N1C[C@H](C)[C@@H](CN(C)C(=O)CCN2CCCCC2)Oc2ncc(C#Cc3ccccc3)cc2C1=O | inactive | inactive | inactive
Cc1cccc(S(=O)(=O)N2C[C@@H](O)COC[C@@H]3O[C@H](CC(=O)NCCCN4CCOCC4)CC[C@H]32)c1 | inactive | inactive | inactive
C=C(C(=O)O[C@H]1CC=C(C)C[C@H](O)[C@H]2[C@H](C)C(=O)O[C@@H]2/C=C/1C)[C@@H]1CCC(=C)[C@@H]2C[C@H](O[C@@H]3O[C@H](CO)[C@@H](O)[C@H](O)[C@H]3O)C(=C)[C@@H]2C1 | inactive | inactive | inactive
COc1ccc([C@@H]([C@H](Cc2ccccc2)OC(C)=O)N2C[C@@H]3C(=NO[C@H]3[C@@H](OC(C)=O)c3ccccc3)[C@@H]2Cc2ccccc2)cc1 | inactive | inactive | inactive
COc1ccc(NC(=O)Nc2ccc3c(c2)CC(=O)N([C@H](C)CO)C[C@H](C)[C@@H](CN(C)S(C)(=O)=O)O3)cc1 | inactive | inactive | inactive
O=C(C[C@@H]1CC[C@H]2[C@@H](COC[C@@H](O)CN2S(=O)(=O)c2ccc(Cl)cc2)O1)NCc1ccncn1 | inactive | inactive | inactive
C[C@H](CO)N1C[C@H](C)[C@@H](CN(C)C(=O)NC2CCCCC2)OCCCC[C@H](C)Oc2ccc(NC(=O)C3CCCCC3)cc2C1=O | inactive | inactive | inactive
N=C(N)NCc1cn(CC(=O)N2CCN(c3ccccc3)CC2)nn1 | inactive | inactive | inactive
C[C@@H]1CCCCO[C@H](CN(C)C(=O)c2ccccc2)[C@@H](C)CN([C@H](C)CO)C(=O)c2cc(NS(=O)(=O)c3cccs3)ccc2O1 | inactive | inactive | inactive
